# The supplement of paper PMC4604168 (melanoma cell lines)
# This is one part of the list. Single values are uncertain, as repeats are few or missing.
# What was measured:
# Experiment in all cases: cell count relative to DMSO control; melanoma cells; higher = more viable cells
# Details in all cases: library dose: low library concentration; 72 h
# MZ2-MEL = tested on: MZ2-MEL
# MeWo = tested on: MeWo
# RPMI7951 = tested on: RPMI7951
# RVH-421 = tested on: RVH-421
# SkMel28 = tested on: SkMel28
# SkMel2 = tested on: SkMel2
# SkMel30 = tested on: SkMel30
# SkMel5 = tested on: SkMel5
# UACC257 = tested on: UACC257
# UACC62 = tested on: UACC62
# 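Note: cell number obtained by counting DAPI-stained nuclei in high-throughput microscope images with image analysis software, screen run in 1,536-well plates.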
Structure (SMILES),cell count (MZ2-MEL) [%],cell count (MeWo) [%],cell count (RPMI7951) [%],cell count (RVH-421) [%],cell count (SkMel28) [%],cell count (SkMel2) [%],cell count (SkMel30) [%],cell count (SkMel5) [%],cell count (UACC257) [%],cell count (UACC62) [%]
"O=C(CCCCCCC(=O)Nc1ccccc1)NO [vorinostat] + Cc1cc(N2CCOCC2)cc2[nH]c(-c3c(NC[C@@H](O)c4cccc(Cl)c4)cc[nH]c3=O)nc12 [BMS536924] (first compound 0.08 µM, partner dose 0.2 µM)",94.5,83.1,87.8,128,76,93.8,82.9,73.1,80.3,84.2
"COCC[n+]1c2c(n(Cc3cnccn3)c1C)C(=O)c1ccccc1C2=O + NC(=O)Nc1cc(-c2cccc(F)c2)sc1C(=O)N[C@H]1CCCNC1 [AZD7762] (first compound 0.0004 µM, partner dose 0.02 µM)",50.7,91.2,61.4,138,103,94.1,83.5,71.2,116,98.2
"Nc1cccc2c1CN(C1CCC(=O)NC1=O)C2=O (stereo not given) [lenalidomide] + Cc1cc(N2CCOCC2)cc2[nH]c(-c3c(NC[C@@H](O)c4cccc(Cl)c4)cc[nH]c3=O)nc12 [BMS536924] (first compound 1 µM, partner dose 0.2 µM)",97.4,88.4,95.7,85.6,87.9,84,96.8,95.2,88.1,89.2
"Clc1ccc(Nc2nnc(Cc3ccncc3)c3ccccc23)cc1 [vatalanib] + c1cc(-c2cnn3cc(-c4ccc(OCCN5CCCCC5)cc4)cnc23)ccn1 [Dorsomorphin] (first compound 2 µM, partner dose 0.4 µM)",87.2,78.2,82.5,128,100,91.7,95.4,79.8,87.4,86.9
"C#Cc1cccc(Nc2ncnc3cc(OCCOC)c(OCCOC)cc23)c1 [erlotinib] + COc1cc(Nc2ncc(F)c(Nc3ccc4c(n3)NC(=O)C(C)(C)O4)n2)cc(OC)c1OC [Tamatinib] (first compound 0.8 µM, partner dose 0.4 µM)",89.2,83.7,90.6,107,81.8,96.9,95.4,102,79.2,83.2
"COCC[n+]1c2c(n(Cc3cnccn3)c1C)C(=O)c1ccccc1C2=O + CC1(C)NC(=O)N(c2ccc([N+](=O)[O-])c(C(F)(F)F)c2)C1=O [nilutamide] (first compound 0.0004 µM, partner dose 1 µM)",45.8,93.7,72.5,119,88.4,74.3,85.3,50.2,89.1,95.9
"Clc1ccc(Nc2nnc(Cc3ccncc3)c3ccccc23)cc1 [vatalanib] + CCCCCCCCCCCC1=C(O)C(=O)C=C(O)C1=O [Embelin] (first compound 2 µM, partner dose 1.2 µM)",96.9,90.8,94.3,104,82.1,103,113,81.2,82.9,88.8
"COCC[n+]1c2c(n(Cc3cnccn3)c1C)C(=O)c1ccccc1C2=O + NCC(=O)Nc1ccc(-n2nc(C(F)(F)F)cc2-c2ccc3c(ccc4ccccc43)c2)cc1 [OSU03012] (first compound 0.0004 µM, partner dose 1 µM)",57,59.7,76.2,88.4,73,63.2,44.3,77,85.8,83.5
"Nc1cccc2c1CN(C1CCC(=O)NC1=O)C2=O (stereo not given) [lenalidomide] + C[C@@H]1CCN(C(=O)CC#N)C[C@@H]1N(C)c1ncnc2[nH]ccc12 [CP690550] (first compound 1 µM, partner dose 1 µM)",103,101,96.7,97.2,95.4,94.7,94.2,108,102,111
"Nc1cccc2c1CN(C1CCC(=O)NC1=O)C2=O (stereo not given) [lenalidomide] + COc1cc(Nc2ncc(F)c(Nc3ccc4c(n3)NC(=O)C(C)(C)O4)n2)cc(OC)c1OC [Tamatinib] (first compound 1 µM, partner dose 0.4 µM)",99.6,95.9,82.6,74.4,85.1,101,112,84.9,71.5,71.4
"Nc1cccc2c1CN(C1CCC(=O)NC1=O)C2=O (stereo not given) [lenalidomide] + CN(C)S(=O)(=O)c1ccc2c(c1)/C(=C/c1cc3c([nH]1)CCCC3)C(=O)N2 [SU6656] (first compound 1 µM, partner dose 0.4 µM)",94.3,82.1,92.9,89.7,80.4,84.9,70.9,79,79.3,56.7
"OCc1c[nH]c2ccccc12 [Indole-3-carbinol] + CO[C@@H]1[C@H](N(C)C(=O)c2ccccc2)C[C@H]2O[C@]1(C)n1c3ccccc3c3c4c(c5c6ccccc6n2c5c31)C(=O)NC4 [Midostaurin] (first compound 0.8 µM, partner dose 0.08 µM)",85.9,76.5,81.9,81.9,94.8,85.6,84.9,96.8,68.8,97.5
"Clc1ccc(Nc2nnc(Cc3ccncc3)c3ccccc23)cc1 [vatalanib] + O=C(Nc1cccc(Cl)c1)Nc1ncc(CCNc2ncnc3ccsc23)s1 [SNS314] (first compound 2 µM, partner dose 0.0008 µM)",92.1,78.8,93.6,87.3,103,86.8,90.8,94.7,94.7,119
"OCc1c[nH]c2ccccc12 [Indole-3-carbinol] + C[C@@H]1CCN(C(=O)CC#N)C[C@@H]1N(C)c1ncnc2[nH]ccc12 [CP690550] (first compound 0.8 µM, partner dose 1 µM)",102,103,108,101,102,89.3,113,95.6,99.1,102
"Cn1c(Nc2ccc(C(F)(F)F)cc2)nc2cc(Oc3ccnc(-c4ncc(C(F)(F)F)[nH]4)c3)ccc21 + CN(NC(=O)CC(=O)NN(C)C(=S)c1ccccc1)C(=S)c1ccccc1 [STA4783] (first compound 0.08 µM, partner dose 0.006 µM)",82.8,60.5,61.4,65,58.7,78.9,53.9,63.9,40.4,62.8
"Clc1ccc(Nc2nnc(Cc3ccncc3)c3ccccc23)cc1 [vatalanib] + CCN(CC)CCCCNc1ncc2cc(-c3cc(OC)cc(OC)c3)c(NC(=O)NC(C)(C)C)nc2n1 [PD173074] (first compound 2 µM, partner dose 0.1 µM)",93.4,103,89.9,90.1,96.7,104,122,98.3,89.4,100
"Cn1c(Nc2ccc(C(F)(F)F)cc2)nc2cc(Oc3ccnc(-c4ncc(C(F)(F)F)[nH]4)c3)ccc21 + COc1cc(Nc2ncc(F)c(Nc3ccc4c(n3)NC(=O)C(C)(C)O4)n2)cc(OC)c1OC [Tamatinib] (first compound 0.08 µM, partner dose 0.4 µM)",82.7,85,74.6,96.9,82.6,99.6,97.7,95.7,70.4,72.2
"Clc1ccc(Nc2nnc(Cc3ccncc3)c3ccccc23)cc1 [vatalanib] + COc1cc(N2CCC(N3CCN(C)CC3)CC2)ccc1Nc1ncc(Cl)c(Nc2ccccc2S(=O)(=O)C(C)C)n1 [NVP-TAE684] (first compound 2 µM, partner dose 0.08 µM)",101,67.3,101,93,82.3,107,92.6,95.5,80.2,86.5
"Nc1cccc2c1CN(C1CCC(=O)NC1=O)C2=O (stereo not given) [lenalidomide] + CC1(C)NC(=O)N(c2ccc([N+](=O)[O-])c(C(F)(F)F)c2)C1=O [nilutamide] (first compound 1 µM, partner dose 1 µM)",101,100,119,87.5,99.4,93.9,107,93.1,115,99.1
"OCc1c[nH]c2ccccc12 [Indole-3-carbinol] + NC(=O)Nc1cc(-c2cccc(F)c2)sc1C(=O)N[C@H]1CCCNC1 [AZD7762] (first compound 0.8 µM, partner dose 0.02 µM)",104,95.4,84.7,108,110,103,108,111,120,89.6
"O=C(CCCCCCC(=O)Nc1ccccc1)NO [vorinostat] + CO[C@@H]1[C@H](N(C)C(=O)c2ccccc2)C[C@H]2O[C@]1(C)n1c3ccccc3c3c4c(c5c6ccccc6n2c5c31)C(=O)NC4 [Midostaurin] (first compound 0.08 µM, partner dose 0.08 µM)",92.2,74.4,76.7,91.3,73.3,77,106,70.2,78.3,92.5
"O=C(CCCCCCC(=O)Nc1ccccc1)NO [vorinostat] + CN(C)S(=O)(=O)c1ccc2c(c1)/C(=C/c1cc3c([nH]1)CCCC3)C(=O)N2 [SU6656] (first compound 0.08 µM, partner dose 0.4 µM)",99.8,86,95.9,109,82.6,105,107,100,106,81.2
